The list shows a part of the results.
Each compound was assayed on S. aureus RN4220 (assay: growth inhibition call (relative growth <= 0.2)). Settings: 50 µM.

Growth inhibition call, inactive:
Cc1nc2c(C)cccc2c2c1COC2
C[C@H](CO)N1C[C@H](C)[C@H](CN(C)Cc2ccccc2)Oc2ccc(NS(=O)(=O)c3cn(C)cn3)cc2CC1=O
C[C@@H]1CN([C@H](C)CO)C(=O)c2ccccc2-c2ccccc2CO[C@H]1CN(C)S(=O)(=O)c1ccc(C(F)(F)F)cc1
C[C@@H]1CN([C@H](C)CO)C(=O)c2cc(NC(=O)Nc3ccccc3)ccc2O[C@@H]1CN(C)C(=O)Nc1cccc2ccccc12
Cc1noc(C)c1NC(=O)Nc1ccc2c(c1)C(=O)N([C@H](C)CO)C[C@@H](C)[C@H](CN(C)S(=O)(=O)c1cccs1)OCCCC[C@@H](C)O2
COc1ccc(S(=O)(=O)N(C)C[C@@H]2Oc3cc(Br)ccc3S(=O)(=O)N([C@H](C)CO)C[C@@H]2C)cc1
C[C@@H]1CN([C@H](C)CO)C(=O)c2cc(NC(=O)Nc3ccc4c(c3)OCO4)ccc2O[C@@H](C)CCCCO[C@@H]1CN(C)S(=O)(=O)c1cccs1
Cc1noc(C)c1NC(=O)N(C)C[C@H]1OCCCC[C@@H](C)Oc2ccc(NC(=O)Nc3ccccc3)cc2C(=O)N([C@H](C)CO)C[C@@H]1C
CO[C@@H]1CN(C)C(=O)c2cc(NS(=O)(=O)CC(F)(F)F)ccc2OC[C@H](C)N(Cc2ccccn2)C[C@@H]1C
O=C(C[C@H]1C=C[C@H](NC(=O)CN2CCOCC2)[C@@H](CO)O1)NC1CCCCC1
CC(=O)Oc1ccc(O)cc1
NNC(=O)Cn1nnc(N2CCCC2)n1

— the antibiotic and cytotoxicity screens of Wong et al. (2023)
